From US7592316B2, “Peptides as NS3-serine protease inhibitors of hepatitis C virus” (Schering Corporation, priority 2000, dated 2009)

Target: HCV NS3/NS4A protease (strain 1a) (Hepatitis C virus genotype 1a, UniProt P27958)
Assay: biochemical
Settings: Compounds prepared by Solid Phase Synthesis, Table 3; read-out: Ki* CLASS

Row | Compound | Ki [nM]
1 | CCCCC(NC(=O)C(CCCC)NC(=O)CNC(=O)C(=O)C(CCC)NC(=O)[C@@H]1C[C@@H](OCc2ccccc2)CN1C(=O)C(NC(=O)C1CCCC1)C1CCCCC1)C(N)=O (stereo partly shown) (Cyclopentanecarbonyl-[ξChg][Hyp](Bn)[X2]G[ξNle][ξNle]-NH2) | 101 to 1000
2 | CCCC(NC(=O)[C@@H]1C[C@@H](OCc2ccccc2)CN1C(=O)C(NC(=O)C1CCCC1)C1CCCCC1)C(=O)C(=O)NCC(=O)NC(C(=O)O)c1ccccc1 (stereo partly shown) (Cyclopentanecarbonyl-[ξChg][Hyp](Bn)[X2]G[ξPhg]-OH) | 1 to 100
3 | CCCC(NC(=O)[C@@H]1C[C@@H](OC(C)(C)C)CN1C(=O)[C@@H](NC(=O)CC1CCCC1)C1CCCCC1)C(=O)C(=O)NCC(=O)N[C@H](C(N)=O)c1ccccc1 (stereo partly shown) (Cyclopentylacetyl-[Chg][Hyp](tBu)[X2]G[Phg]-NH2) | 1 to 100
4 | CCC(NC(=O)[C@@H]1C[C@@H](OC(C)(C)C)CN1C(=O)[C@@H](NC(=O)CC1CCCC1)C1CCCCC1)C(=O)C(=O)NCC(=O)N[C@H](C(N)=O)c1ccccc1 (stereo partly shown) (Cyclopentylacetyl-[Chg][Hyp](tBu)[ξ(3-Amino-2-oxopentanoyl)]G[Phg]-NH2) | 101 to 1000
5 | CCCC(NC(=O)[C@@H]1C[C@@H](OCc2ccccc2)CN1C(=O)C(NC(=O)CC1CCCC1)C1CCCCC1)C(=O)C(=O)NCC(=O)NC(C(N)=O)c1ccccc1 (stereo partly shown) (Cyclopentylacetyl-[ξChg][Hyp](Bn)[X2]G[ξPhg]-NH2) | 101 to 1000
6 | CCCCC(NC(=O)CNC(=O)C(=O)C(CCC)NC(=O)[C@@H]1C[C@@H](OCC(=O)OC(C)(C)C)CN1C(=O)C(NC(=O)CC1CCCC1)C1CCCCC1)C(N)=O (stereo partly shown) (Cyclopentylacetyl-[ξChg][Hyp](CH2CO2tBu)[X2]G[ξNle]-NH2) | > 1000
7 | CCCCC(NC(=O)CNC(=O)C(=O)C(CCC)NC(=O)[C@@H]1C[C@@H](OCC(=O)O)CN1C(=O)C(NC(=O)CC1CCCC1)C1CCCCC1)C(N)=O (stereo partly shown) (Cyclopentylacetyl-[ξChg][Hyp](Carboxymethyl)[X2]G[ξNle]-NH2) | > 1000
8 | CCCCC(NC(=O)CNC(=O)C(=O)C(CCC)NC(=O)[C@@H]1C[C@@H](OC(C)(C)C)CN1C(=O)C(NC(=O)CC1CCCC1)C1CCCCC1)C(N)=O (stereo partly shown) (Cyclopentylacetyl-[ξChg][Hyp](tBu)[X2]G[ξNle]-NH2) | 101 to 1000
9 | CCCCC(NC(=O)CNC(=O)C(=O)C(CCC)NC(=O)[C@@H]1C[C@@H](OCc2ccccc2)CN1C(=O)C(NC(=O)C(c1ccccc1)c1ccccc1)C1CCCCC1)C(N)=O (stereo partly shown) (Diphenylacetyl-[ξChg][Hyp](Bn)[X2]G[ξNle]-NH2) | 101 to 1000
10 | CCCC(NC(=O)[C@@H]1C[C@@H](OCc2ccccc2)CN1C(=O)[C@H](CCCC(=O)OC(C)(C)C)NC(=O)OCC(C)C)C(=O)C(=O)NCC(=O)N[C@H](C(N)=O)c1ccccc1 (stereo partly shown) (Isobutyloxycarbonyl-[Aad](OtBu)[Hyp](Bn)[X2]G[Phg]-NH2) | > 1000
11 | CCCC(NC(=O)[C@@H]1C[C@@H](OCc2ccccc2)CN1C(=O)[C@H](CCCC(=O)O)NC(=O)OCC(C)C)C(=O)C(=O)NCC(=O)N[C@H](C(N)=O)c1ccccc1 (stereo partly shown) (Isobutyloxycarbonyl-[Aad][Hyp](Bn)[X2]G[Phg]-NH2) | 101 to 1000
12 | CCCC(NC(=O)[C@@H]1C[C@@H](OC(C)(C)C)CN1C(=O)[C@@H](NC(=O)OCC(C)C)C1CCCCC1)C(=O)C(=O)NCC(=O)N[C@@H](CCC(=O)OC(C)(C)C)C(N)=O (stereo partly shown) (Isobutyloxycarbonyl-[Chg][Hyp](tBu)[X2]GE(OtBu)-NH2) | > 1000
13 | CCCC(NC(=O)[C@@H]1C[C@@H](OC(C)(C)C)CN1C(=O)[C@@H](NC(=O)OCC(C)C)C1CCCCC1)C(=O)C(=O)NCC(=O)N[C@@H](CCCC(=O)OC(C)(C)C)C(N)=O (stereo partly shown) (Isobutyloxycarbonyl-[Chg][Hyp](tBu)[X2]G[Aad](OtBu)-NH2) | > 1000
14 | CCCC(NC(=O)[C@@H]1C[C@@H](OC(C)(C)C)CN1C(=O)[C@@H](NC(=O)OCC(C)C)C1CCCCC1)C(=O)C(=O)NCC(=O)N[C@H](CC(=O)OC(C)(C)C)C(N)=O (stereo partly shown) (Isobutyloxycarbonyl-[Chg][Hyp](tBu)[X2]G[dD](OtBu)-NH2) | > 1000
15 | CCCC(NC(=O)[C@@H]1C[C@@H](OC(C)(C)C)CN1C(=O)[C@@H](NC(=O)OCC(C)C)C1CCCCC1)C(=O)C(=O)NCC(=O)NC(C(N)=O)c1cccc(OC)c1OC (stereo partly shown) (Isobutyloxycarbonyl-[Chg][Hyp](tBu)[X2]G[ξPhg(2,3-(OMe)2)]-NH2) | 101 to 1000
16 | CCCC(NC(=O)[C@@H]1C[C@@H](OC(C)(C)C)CN1C(=O)[C@@H](NC(=O)OCC(C)C)C1CCCCC1)C(=O)C(=O)NCC(=O)NC(C(N)=O)c1cc(OC)cc(OC)c1 (stereo partly shown) (Isobutyloxycarbonyl-[Chg][Hyp](tBu)[X2]G[ξPhg(3,5-(OMe)2)]-NH2) | 101 to 1000
17 | CCCC(NC(=O)[C@@H]1C[C@@H](OC(C)(C)C)CN1C(=O)[C@@H](NC(=O)OCC(C)C)C1CCCCC1)C(=O)C(=O)NCC(=O)NC(C(N)=O)c1cccc(Cl)c1 (stereo partly shown) (Isobutyloxycarbonyl-[Chg][Hyp](tBu)[X2]G[ξPhg(3-Cl)]-NH2) | 101 to 1000
18 | CCCC(NC(=O)[C@@H]1C[C@@H](OC(C)(C)C)CN1C(=O)[C@@H](NC(=O)OCC(C)C)C1CCCCC1)C(=O)C(=O)NCC(=O)NC(C(N)=O)c1cccc(F)c1 (stereo partly shown) (Isobutyloxycarbonyl-[Chg][Hyp](tBu)[X2]G[ξPhg(3-F)]-NH2) | 101 to 1000
19 | CCCC(NC(=O)[C@@H]1C[C@@H](OC(C)(C)C)CN1C(=O)[C@@H](NC(=O)OCC(C)C)C1CCCCC1)C(=O)C(=O)NCC(=O)NC(C(N)=O)c1cccc(OC)c1 (stereo partly shown) (Isobutyloxycarbonyl-[Chg][Hyp](tBu)[X2]G[ξPhg(3-OMe)]-NH2) | 101 to 1000
20 | CCCCC(NC(=O)[C@@H]1C[C@@H](OC(C)(C)C)CN1C(=O)[C@@H](NC(=O)OCC(C)C)C1CCCCC1)C(=O)C(=O)NCC(=O)N[C@H](C(N)=O)c1ccccc1 (stereo partly shown) (Isobutyloxycarbonyl-[Chg][Hyp](tBu)[X4]G[Phg]-NH2) | 101 to 1000
21 | CC(C)COC(=O)N[C@H](C(=O)N1C[C@H](OC(C)(C)C)C[C@H]1C(=O)N[C@@H](Cc1ccccc1)C(=O)C(=O)NCC(=O)N[C@H](C(N)=O)c1ccccc1)C1CCCCC1 (Isobutyloxycarbonyl-[Chg][Hyp](tBu)[X95]G[Phg]-NH2) | > 1000
22 | CCCC(NC(=O)[C@@H]1C[C@@H](O)CN1C(=O)[C@@H](NC(=O)OCC(C)C)C1CCCCC1)C(=O)C(=O)NCC(=O)NC(C(N)=O)c1cc(OC)cc(OC)c1 (stereo partly shown) (Isobutyloxycarbonyl-[Chg][Hyp][X2]G[ξPhg(3,5-(OMe)2)]-NH2) | 101 to 1000

Same assay, conditions: Table 4; HCV NS3/NS4A protease, spectrophotometric assay, 30° C., pH 6.5; read-out: Ki* Range

Row | Compound | Ki [nM]
23 | CCCC(NC(=O)[C@@H]1CC(C)(C)CN1C(=O)[C@@H](NC)C1CCCCC1)C(=O)C(=O)NCC(=O)NC(C(=O)O)c1ccccc1 (stereo partly shown) (H-[NMeChg][Pro(4,4-Me2)][X2]G[ξPhg]-OH) | > 1000
24 | CCC[C@H](NC(=O)[C@@H]1CC(C)(C)CN1C(=O)[C@@H](NC(=O)OCC(C)C)[C@@H](C)CC)C(=O)C(=O)NCC(=O)N[C@H](C(=O)N(C)C)c1ccccc1 (Isobutyloxycarbonyl-I[Pro(4,4-Me2)][X12]G[Phg]-NMe2) | 1 to 100
25 | CCC[C@@H](NC(=O)[C@@H]1COCCN1C(=O)[C@@H](NC(=O)OCC(C)C)C1CCCCC1)C(=O)C(=O)NCC(=O)N[C@H](C(=O)N(C)C)c1ccccc1 (Isobutyloxycarbonyl-[Chg][Morpholine(3S-CO)][X19]G[Phg]-NMe2) | 101 to 1000
26 | CCCC(NC(=O)[C@@H]1[C@@H]2[C@H](CN1C(=O)[C@@H](NC(=O)OCC(C)C)C1CCCCC1)C2(C)C)C(=O)C(=O)NCC(=O)N[C@H](C(=O)O)c1ccccc1 (stereo partly drawn) (Isobutyloxycarbonyl-[Chg][Pro(3R,4S-CMe2)][X2]G[Phg]-OH) | 1 to 100
27 | CCCC(NC(=O)[C@@H]1[C@@H]2[C@H](CN1C(=O)[C@@H](NC(=O)OCC(C)C)C1CCCCC1)C2(C)C)C(=O)C(=O)NCC(=O)NC(C(=O)N(C)C)c1ccccc1 (stereo partly drawn) (Isobutyloxycarbonyl-[Chg][Pro(3R,4S-CMe2)][X2]G[ξPhg]-NMe2) | 1 to 100
28 | CC(C)COC(=O)N[C@H](C(=O)N1C[C@H]2[C@@H]([C@H]1C(=O)N[C@H](C(=O)C(=O)NCC(=O)NC(C(=O)N(C)C)c1ccccc1)[C@H]1C[C@@H]1C)C2(C)C)C1CCCCC1 (stereo partly drawn) (Isobutyloxycarbonyl-[Chg][Pro(3R,4S-CMe2)][X83]G[ξPhg]-NMe2) | 1 to 100
29 | CCC[C@@H](NC(=O)[C@@H]1[C@@H](c2ccccc2)CCN1C(=O)[C@@H](NC(=O)OCC(C)C)C1CCCCC1)C(=O)C(=O)NCC(=O)N[C@H](C(=O)N(C)C)c1ccccc1 (Isobutyloxycarbonyl-[Chg][Pro(3R-Ph)][X19]G[Phg]-NMe2) | 101 to 1000
30 | CC(C)COC(=O)N[C@H](C(=O)N1CC(C)(C)C[C@H]1C(=O)N[C@@H](CC(C)C)C(=O)C(=O)NCC(=O)N[C@H](C(=O)N(C)C)c1ccccc1)C1CCCCC1 (Isobutyloxycarbonyl-[Chg][Pro(4,4-Me2)][Leuψ(COCO)]G[Phg]-NMe2) | 1 to 100
31 | CCCC(NC(=O)[C@@H]1CC(C)(C)CN1C(=O)[C@@H](NC(=O)OCC(C)C)C1CCCCC1)C(=O)C(=O)NCC(=O)NC(C(=O)N(C)C)c1ccccc1 (stereo partly shown) (Isobutyloxycarbonyl-[Chg][Pro(4,4-Me2)][X2]G[ξPhg]-NMe2) | 1 to 100
32 | CCCC(NC(=O)[C@@H]1CC(C)(C)CN1C(=O)[C@@H](NC(=O)OCC(C)C)C1CCCCC1)C(=O)C(=O)NCC(=O)NC(C(=O)OC)c1ccccc1 (stereo partly shown) (Isobutyloxycarbonyl-[Chg][Pro(4,4-Me2)][X2]G[ξPhg]-OMe) | 1 to 100
33 | CCCC(NC(=O)[C@@H]1CC(C)(C)CN1C(=O)[C@@H](NC(=O)OCC(C)C)C1CCCCC1)C(=O)C(=O)N[C@@H](COC)C(=O)N[C@H](C(=O)O)c1ccccc1 (stereo partly shown) (Isobutyloxycarbonyl-[Chg][Pro(4,4-Me2)][X2]S(Me)[Phg]-OH) | 1 to 100
34 | CCCC(NC(=O)[C@@H]1CC(C)(C)CN1C(=O)[C@@H](NC(=O)OCC(C)C)C1CCCCC1)C(=O)C(=O)N[C@@H](CO)C(=O)N[C@H](C(=O)O)c1ccccc1 (stereo partly shown) (Isobutyloxycarbonyl-[Chg][Pro(4,4-Me2)][X2]S[Phg]-OH) | 101 to 1000

*1 amine or outer side, *2 acyl side, *3 side chain or, on linkers, in order; H or OH if unused. Where a SMILES comes first, the peptide text is derived from it. [ ]: non-standard residue; d: D form. The star is where a group is joined. ξ: configuration not given here. Pro(3R,4S-CMe2) = CC1(C)[C@@H]2[C@@H](C(=O)O)NC[C@@H]21; ξ(3-Amino-2-oxopentanoyl) = CCC(N[*:1])C(=O)C(=O)[*:2]; X83 = C[C@H]1C[C@@H]1[C@H](N[*:1])C(=O)C(=O)[*:2]; Leuψ(COCO) = CC(C)C[C@H](N[*:1])C(=O)C(=O)[*:2]; ξPhg(3,5-(OMe)2) = COc1cc(OC)cc(C(N)C(=O)O)c1; Pro(3R-Ph) = O=C(O)[C@H]1NCC[C@@H]1c1ccccc1; X95 = O=C(C(=O)[*:2])[C@H](Cc1ccccc1)N[*:1]; ξPhg(2,3-(OMe)2) = COc1cccc(C(N)C(=O)O)c1OC; Diphenylacetyl = O=C(C(c1ccccc1)c1ccccc1)*; Morpholine(3S-CO) = O=C(O)[C@@H]1COCCN1; Pro(4,4-Me2) = CC1(C)CN[C@H](C(=O)O)C1; X19 = CCC[C@@H](N[*:1])C(=O)C(=O)[*:2]; X12 = CCC[C@H](N[*:1])C(=O)C(=O)[*:2]; Cyclopentanecarbonyl = O=C(C1CCCC1)*; ξPhg(3-OMe) = COc1cccc(C(N)C(=O)O)c1; Isobutyloxycarbonyl = CC(C)COC(=O)*; ξPhg(3-Cl) = NC(C(=O)O)c1cccc(Cl)c1; Cyclopentylacetyl = O=C(CC1CCCC1)*; X4 = CCCCC(N[*:1])C(=O)C(=O)[*:2]; ξPhg(3-F) = NC(C(=O)O)c1cccc(F)c1; Hyp = O=C(O)[C@@H]1C[C@@H](O)CN1; NMeChg = CN[C@H](C(=O)O)C1CCCCC1; X2 = CCCC(N[*:1])C(=O)C(=O)[*:2]; Aad = N[C@@H](CCCC(=O)O)C(=O)O; CH2CO2tBu = CC(C)(C)OC(=O)C*; Chg = N[C@H](C(=O)O)C1CCCCC1; Phg = N[C@H](C(=O)O)c1ccccc1; ξChg = NC(C(=O)O)C1CCCCC1; ξPhg = NC(C(=O)O)c1ccccc1; Carboxymethyl = O=C(O)C*; ξNle = CCCCC(N)C(=O)O; Bn = c1ccc(C*)cc1; OtBu = CC(C)(C)O*; tBu = CC(C)(C)*
